This is an account of results in PubChem BioAssay AID485344 (National Center for Advancing Translational Sciences (NCATS), 2010).

Among all 340,000 compounds or so, about 6,900 (2%) were called active. Rule as the data show it: active = inhibition above about 30%; inactive = below that, where a call was filed. Only a part is listed here, and it is no random draw. The source gives no active or inactive call for entries shown without one.

UniProt P14416, sequence (P14416 whole entry, looked up): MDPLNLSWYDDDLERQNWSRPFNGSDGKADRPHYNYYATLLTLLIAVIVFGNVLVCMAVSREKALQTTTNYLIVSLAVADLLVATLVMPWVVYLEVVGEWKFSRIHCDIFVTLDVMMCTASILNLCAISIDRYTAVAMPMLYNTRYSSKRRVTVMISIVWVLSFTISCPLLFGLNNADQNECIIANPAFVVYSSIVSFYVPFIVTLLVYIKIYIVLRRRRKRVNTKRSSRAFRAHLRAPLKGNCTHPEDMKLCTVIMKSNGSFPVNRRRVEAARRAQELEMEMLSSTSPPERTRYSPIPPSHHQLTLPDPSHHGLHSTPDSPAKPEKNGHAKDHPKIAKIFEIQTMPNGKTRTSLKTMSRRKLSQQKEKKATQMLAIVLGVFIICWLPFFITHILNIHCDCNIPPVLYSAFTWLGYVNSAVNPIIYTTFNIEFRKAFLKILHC

The assay addresses D(2) dopamine receptor (Homo sapiens) (UniProt P14416). The experiment in a line: HTS Assay for Allosteric Antagonists of the Human D2 Dopamine Receptor: Primary Screen for Antagonists. Also: 0% is about no effect. The note with it: HEK293 TREx D2 cells, calcium flux, dopamine EC80; at 10 µM; stronger effect = higher value. The text has this:
NIH Chemical Genomics Center [NCGC] NIH Molecular Libraries Probe Centers Network [MLPCN] MLPCN Grant: NS064831-01 Assay Submitter (PI): David Sibley Dopamine receptors (DARs) are involved in the etiology and/or therapy of a number of neuropsychiatric and endocrine disorders. For instance, all receptor-based antiparkinsonian drugs work via stimulating the D2 DAR subtype whereas all FDA-approved antipsychotic agents are antagonists of this receptor. […] There are three different types of allosteric modulators that we are seeking, two of which will stimulate or augment receptor signaling, allosteric agonists and potentiators, while the third, allosteric antagonists, will attenuate receptor signaling. The present primary screening assay measures compound antagonism after an EC80 addition of dopamine by tracking calcium flux in a […], inducible Hek293 Trex D2 cell line.
Freshly passaged cells are plated in 1536 well black, clear bottom plates at a density of 4000 cells/well in 3 ul of complete media containing 1x tetracycline inducer. After an overnight incubation at 30 C in 5% CO2, cells are loaded with 2 ul of the no wash Calcium Assay Kit (ABD Bioquest) and incubated at room temperature for 30 to 90 minutes. Agonist read: A 10 cycle (1 second/cycle) baseline measurement is taken and then the FDSS online 1536 pintool delivers 23 nl of compound library (as well as dopamine controls) to the plate. The plate is measured for kinetically at 1 cycle/sec for 180 seconds. Following the 180 second read, 1 ul of an EC80 (negative modulation assay) is delivered by an onboard pipette head. Measurements are taken kinetically for an additional 180 seconds.
Background: Calcium assays in cells follow changes in intracellular calcium, usually with a dye or a luminescent sensor.
Turning to `COc1ccccc1Nc1nc(-c2ccccc2)c(CC(=O)O)s1`, the inhibition amounted to 13%.
In the case of `CCOC(=O)c1c(-c2ccc(OC)c(OC)c2)csc1NC(=O)c1ccccc1F`, the inhibition was -6.16%.
As to `Cc1ccc2nc3c(cc(C(=O)NC4CCCC4)c(=N)n3C(C)C)c(=O)n2c1`, the inhibition amounted to 3.89%.
In the case of `O=C(C1CC1)N1CCc2cc(Br)cc(S(=O)(=O)NCCCN3CCCC3)c21`, the inhibition was active: 38.8%.
With `COc1ccc2[nH]cc(CCNC(=O)Nc3cc(C)cc(C)c3)c2c1`, the inhibition was found to be 7.44%.
In the case of `CCC(Nc1ccc(-c2nc(-c3cccnc3)no2)cc1[N+](=O)[O-])c1ccccc1` (centres undefined), the inhibition was 14.3%.
Then `O=c1c2cccnc2n(Cc2cccc(F)c2)c(=O)n1Cc1ccc(F)cc1`, with 17.7%.
Turning to `O=C(NC1CC(=O)N(c2ccc(Cl)cc2)C1)c1cc2ccccc2o1` (centres undefined), the inhibition stood at 3.02%.
On to `CC(=O)Nc1ccc(Nc2ccc3cc(S(=O)(=O)N4CCCCC4)ccc3n2)cc1`, for which the inhibition was determined as 0.664%.
On to `Nc1cc(=O)nc(SCC(=O)Nc2ccccc2)n1CCc1ccccc1`, for which the inhibition is 14%.
Then `CCN(c1ccccc1)S(=O)(=O)c1ccc(NC(=O)c2nc(S(C)(=O)=O)ncc2Cl)cc1`, with 22.9%.
Consider `CCOCCOC(=O)c1ccc2c(c1)N(Cc1ccccc1C#N)C(=O)c1ccccc1S2(=O)=O`, for which the inhibition was -5.11%.
`CCc1ccc(C(=O)COC(=O)C(NC(=O)C2CCC(C)CC2)C(C)C)cc1` (centres undefined): the inhibition was -16.5%.
As for `CCOc1ccc(CCNC(=O)CCCn2c(=O)c3cccn3c3cccnc32)cc1`, the inhibition stood at 11.9%.
On to `COc1ccc(-c2cc3ccc(O)c(CN4CCN(C)CC4)c3oc2=O)cc1OC`, for which the inhibition was determined as 6.92%.
Consider `COc1cc(CNC(=O)c2cnc3c(-c4cccc(C)c4)c(C)nn3c2C)cc(OC)c1OC`, for which the inhibition was -1.63%.
With `CCCn1c2ccccc2c2cnn(CC(=O)Nc3cc(OC)c(OC)c(OC)c3)c(=O)c21`, the inhibition was determined as 4.08%.
Next, `CCc1nc2ccc(C(=O)N3CCN(c4cccc(Cl)c4)CC3)cc2nc1CC`: 11.6%.
Turning to `CC(C)c1ccc(Nc2sc(C(=O)c3ccccc3)c(N)c2S(=O)(=O)c2ccccc2)cc1`, the inhibition was determined as 7.01%.
Consider `CC(C)CC(=O)Nc1nnc(S(=O)(=O)N2c3ccccc3CC2C)s1` (centres undefined), for which the inhibition was found to be 5.69%.
In the case of `CCOc1ccc(C(=O)NCCc2csc(-c3cccc(C)c3)n2)cc1`, the inhibition was -3.41%.
Then `O=C(CCC(=O)N1CCOc2ccc(Cl)cc21)NCCCN1CCN(Cc2ccccc2)CC1`, with active: 40.7%; and `Cc1ccc(N2CCN(C(=O)Cn3ncc4c([nH]c5ccc(C)cc54)c3=O)CC2)c(C)c1`, with 1.19%; and `COc1ccc(-n2c(=O)c3c4c(sc3n(Cc3ccccc3C)c2=O)CCCC4)c(OC)c1`, with -3.51%.
In the case of `CCc1cccc(NC(=O)C(Cc2ccccc2)NS(=O)(=O)c2cccs2)c1` (centres undefined), the inhibition is -0.313%.
`CC(=O)c1ccc(Nc2cc(C)nc3nc(Cc4ccccc4)nn23)cc1`: the inhibition was -12.9%.
With `COc1ccc(N(CC(=O)NCCc2ccccc2)S(=O)(=O)c2c(C)nn(C)c2C)cc1`, the inhibition was -5.83%.
Next, `CCc1ccc(C2=NN(CCC(=O)NCCc3ccccc3)C(=O)CC2)cc1`: 5.97%.
Turning to `CCc1c(C)c2cc3c(c(C)c2oc1=O)OCN(CCc1ccc(OC)c(OC)c1)C3`, the inhibition came to 24.1%.
With `COc1ccc(CCNC(=O)CCN2C(=O)C3CC=CCC3C2=O)cc1OC` (centres undefined), the inhibition was active: 64.1%.
For `COc1cc2c(cc1OC)C(CC(=O)O)N(C(=O)Nc1cc(OC)c(OC)c(OC)c1)CC2` (centres undefined), the inhibition was -24.3%.
With `Cc1ccc(C)c(N2CCN(CCCNC(=O)c3ccc4nc(N5CCC(C)CC5)sc4c3)CC2)c1`, the inhibition was 3.9%.
`CC(=O)c1ccc(NC(=O)CSc2nc(-c3ccccc3C)nc3c2c(=O)n(C)c(=O)n3C)cc1`: the inhibition was -7.46%.
Next, `CCOC(=O)c1c(C)oc2nc(C)nc(N(C)Cc3ccccc3)c12`: 0.667%; `O=C(CSc1ncc(-c2ccc(Cl)cc2)[nH]1)Nc1ccccc1F`: -3.91%; `Cc1ccc(S(=O)(=O)N2CCCC2C(=O)Nc2ccc(Br)cc2)cc1` (centres undefined): 21.5%.
Consider `CCOc1ccc(C(=O)c2cn(Cc3cccc(OC)c3)c3cc4c(cc3c2=O)OCO4)cc1`, for which the inhibition was -0.439%.
As to `CCn1c(SCC(=O)N/N=C/c2ccc(C)o2)nnc1-c1ccccc1`, the inhibition is active: 56.8%.
Consider `COc1ccc(C(CNC(=O)COc2ccc(Cl)c(C)c2)N2CCCCC2)cc1` (centres undefined), for which the inhibition is active: 36.5%.
For the compound `O=C(C1CCCN(S(=O)(=O)c2cccc3nonc23)C1)N1CCN(c2cccc(C(F)(F)F)c2)CC1` (centres undefined), the inhibition is -14.7%.
For `Cc1ccc(S(=O)(=O)N(C)C)cc1NC(=S)NC12CC3CC(CC(C3)C1)C2`, the inhibition was active: 77.8%.
Next, `CCOC(=O)CNC(=O)Nc1cc(C(=O)NCc2ccc(C(C)C)cc2)ccc1N1CCCC1`: 10.6%; `Cc1cc(OCC(=O)Nc2sc3c(c2C#N)CCC(C)C3)ccc1Cl` (centres undefined): -3.11%.
Turning to `Cc1ccc2[nH]c(=O)c3cc(C(=O)NCc4cccc(Cl)c4)sc3c2c1`, the inhibition is 3.51%.
Next, `Cc1cc(C)c(/C=C/c2onc(C)c2S(=O)(=O)N2CCC(C(=O)Nc3cccc(C)c3C)CC2)c(C)c1`: -13.1%; `COc1ccccc1-c1noc(CSc2nnc(-c3ccccc3)n2-c2ccc(C)c(C)c2)n1`: -14.8%.
Then `CCOC(=O)c1ccc(N2CCN(c3ccc(F)cc3)CC2)c(NC(=O)Nc2ccc(CC)cc2)c1`, with 8.5%.
Next, `CCOc1ccc(C(=O)Nc2ccc(NC(=O)c3ccccc3)cc2)cc1Br`: 2.25%; `Cc1ccc(S(=O)(=O)N2CCCc3cc(NS(=O)(=O)c4ccccc4)ccc32)cc1`: 4.62%.
For `Cc1ccc(OCC(=O)N(Cc2nc(-c3ccccc3)no2)C(C)C)cc1C`, the inhibition was 5.14%.
Consider `COC(=O)c1ccc([C@H]2Nc3ccc(S(=O)(=O)Nc4ccc(F)cc4)cc3[C@H]3C=CC[C@H]32)cc1`, for which the inhibition amounted to 2.78%.
Consider `CN(C)c1ncc(C(=O)NCc2ccccc2Cl)cn1`, for which the inhibition was -20.4%.
Regarding `COc1ccccc1C(=O)Nc1ccnn1C1CCN(CCCc2ccccc2)CC1`, the inhibition was active: 32.8%.
Next, `COc1ccc(CNc2nc(NCc3ccc(OC)cc3)n(C(=O)c3ccccc3[N+](=O)[O-])n2)cc1`: active: 31.2%; `COc1ccc(S(=O)(=O)NCc2ccc3c(c2)CCN3C(C)=O)cc1OC`: 8.22%.
`Cc1ccc(NC(=O)CCS(=O)(=O)c2ccc3nc(C)sc3c2)c(C)c1`: the inhibition was 0.599%.
With `CCOc1ccc(CN2C(=O)c3ccccc3Sc3ccc(C(=O)NCCCN4CCOCC4)cc32)cc1`, the inhibition was -14.4%.
Take `CC(C)c1ccc(NC(=O)c2cc(S(=O)(=O)N3CCc4ccccc4C3)ccc2F)cc1`: the inhibition came out at 6.1%.
On to `Cc1cccc(NC(=O)CCn2nc(C)c3c(C)n(-c4ccccc4)nc3c2=O)c1C`, for which the inhibition was 15.8%.

As a reminder, the inhibition is the relative decrease from the control value, in per cent.
